According to the supplement of paper PMC10369915:
The list shows a part of the results. Cut-off read from the data, not from the text of the source: active = 3.2 or more and inactive = the rest. The signal is at background level for most entries.

The binders below were run against SHP2 C-SH2 domain E139D (assay: enrichment score (SH2-bound / input frequency) (ratio); bacterial display of known human phosphotyrosine sites (pTyr-Var adds point mutants) read by sequencing; higher = stronger binding; tyrosines were phosphorylated by kinases first). Details: peptide library: pTyr-Var.
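Note: displayed peptides selected on beads carrying the immobilized SH2 domain, with library peptides lacking any tyrosine serving as negative controls.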

Enrichment score, inactive:
CSSPTYRDCLQ [LARGE2_Y682_R677C] 1.87, HNQDDYSYPSR [LDLR_Y845_G844D] 0.449, SCRENYSFSEE [LEMD3_Y258_D260Y_YF] 0.627, SARFRYLLAEK [LDHB_Y173_M175L] 0.511, HGVSSYDTVIS [LDLR_Y465] 0.757, HNQDGYSFPSR [LDLR_Y845_YF] 0.458, RSSPTYRDCLQ [LARGE2_Y682] 0.862, SSFSGYIMMPN [LEF1_Y114_YF] 0.815, ANAFIYVVQLP [L1CAM_Y420_YF] 1.22, FKNGDYNEVMK [LCT_Y1638] 0.647, RLPINYTTRRI [LAMA2_Y2894_G2889R] 0.176, LKVKAYRFSIS [LCT_Y974] 0.848, AHLLQYNHQVK [LGALS3_Y221_R224Q] 0.912, FSGIFYKPESL [L2HGDH_Y103_H98Y_YF] 1.98, YIATQYSLRPR [LBR_Y166] 0.232, YKPGFYNLKEK [LAMA1_Y490_C485Y] 1.21, HNQDGYSFLSR [LDLR_Y845_P848L_YF] 1.17, NPIGLYSAETL [LDB3_Y202] 0.803

These binders were tested against SHP2 C-SH2 domain wild-type in the same assay as above. Details: peptide library: pTyr-Var.

Enrichment score, inactive:
CSSPTYRDCLQ [LARGE2_Y682_R677C] 1.7, HNQDDYSYPSR [LDLR_Y845_G844D] 0.449, SCRENYSFSEE [LEMD3_Y258_D260Y_YF] 0.631, SARFRYLLAEK [LDHB_Y173_M175L] 0.574, HGVSSYDTVIS [LDLR_Y465] 0.665, HNQDGYSFPSR [LDLR_Y845_YF] 0.578, RSSPTYRDCLQ [LARGE2_Y682] 0.674, SSFSGYIMMPN [LEF1_Y114_YF] 0.727, ANAFIYVVQLP [L1CAM_Y420_YF] 1.15, FKNGDYNEVMK [LCT_Y1638] 0.748, RLPINYTTRRI [LAMA2_Y2894_G2889R] 0.216, LKVKAYRFSIS [LCT_Y974] 0.827, AHLLQYNHQVK [LGALS3_Y221_R224Q] 0.868, FSGIFYKPESL [L2HGDH_Y103_H98Y_YF] 1.54, YIATQYSLRPR [LBR_Y166] 0.284, YKPGFYNLKEK [LAMA1_Y490_C485Y] 1.35, HNQDGYSFLSR [LDLR_Y845_P848L_YF] 1.15, NPIGLYSAETL [LDB3_Y202] 0.915

What follows are binders tested against SHP2 N-SH2 domain L43F in the same assay as above. Details: peptide library: pTyr-Var.

Enrichment score, inactive:
CSSPTYRDCLQ [LARGE2_Y682_R677C] 1.76, HNQDDYSYPSR [LDLR_Y845_G844D] 0.786, SCRENYSFSEE [LEMD3_Y258_D260Y_YF] 0.554, SARFRYLLAEK [LDHB_Y173_M175L] 0.487, HGVSSYDTVIS [LDLR_Y465] 0.772, HNQDGYSFPSR [LDLR_Y845_YF] 0.495, RSSPTYRDCLQ [LARGE2_Y682] 0.658, SSFSGYIMMPN [LEF1_Y114_YF] 0.849, ANAFIYVVQLP [L1CAM_Y420_YF] 1.19, FKNGDYNEVMK [LCT_Y1638] 0.764, RLPINYTTRRI [LAMA2_Y2894_G2889R] 0.16, LKVKAYRFSIS [LCT_Y974] 0.606, AHLLQYNHQVK [LGALS3_Y221_R224Q] 0.987, FSGIFYKPESL [L2HGDH_Y103_H98Y_YF] 1.76, YIATQYSLRPR [LBR_Y166] 0.394, YKPGFYNLKEK [LAMA1_Y490_C485Y] 1.48, HNQDGYSFLSR [LDLR_Y845_P848L_YF] 0.649, NPIGLYSAETL [LDB3_Y202] 0.811

What follows are binders tested against SHP2 N-SH2 domain T42A in the same assay as above. Details: peptide library: pTyr-Var.

Enrichment score, inactive:
CSSPTYRDCLQ [LARGE2_Y682_R677C] 1.54, HNQDDYSYPSR [LDLR_Y845_G844D] 0.688, SCRENYSFSEE [LEMD3_Y258_D260Y_YF] 0.55, SARFRYLLAEK [LDHB_Y173_M175L] 0.524, HGVSSYDTVIS [LDLR_Y465] 0.71, HNQDGYSFPSR [LDLR_Y845_YF] 0.554, RSSPTYRDCLQ [LARGE2_Y682] 0.582, SSFSGYIMMPN [LEF1_Y114_YF] 0.896, ANAFIYVVQLP [L1CAM_Y420_YF] 0.984, FKNGDYNEVMK [LCT_Y1638] 0.794, RLPINYTTRRI [LAMA2_Y2894_G2889R] 0.202, LKVKAYRFSIS [LCT_Y974] 0.698, AHLLQYNHQVK [LGALS3_Y221_R224Q] 0.854, FSGIFYKPESL [L2HGDH_Y103_H98Y_YF] 1.95, YIATQYSLRPR [LBR_Y166] 0.247, YKPGFYNLKEK [LAMA1_Y490_C485Y] 1.01, HNQDGYSFLSR [LDLR_Y845_P848L_YF] 0.615, NPIGLYSAETL [LDB3_Y202] 0.694

Each binder was assayed against SHP2 N-SH2 domain T52S in the same assay as above. Details: peptide library: pTyr-Var.

Enrichment score, inactive:
CSSPTYRDCLQ [LARGE2_Y682_R677C] 1.72, HNQDDYSYPSR [LDLR_Y845_G844D] 0.517, SCRENYSFSEE [LEMD3_Y258_D260Y_YF] 0.527, SARFRYLLAEK [LDHB_Y173_M175L] 0.772, HGVSSYDTVIS [LDLR_Y465] 0.699, HNQDGYSFPSR [LDLR_Y845_YF] 0.586, RSSPTYRDCLQ [LARGE2_Y682] 0.653, SSFSGYIMMPN [LEF1_Y114_YF] 0.649, ANAFIYVVQLP [L1CAM_Y420_YF] 0.919, FKNGDYNEVMK [LCT_Y1638] 0.675, RLPINYTTRRI [LAMA2_Y2894_G2889R] 0.206, LKVKAYRFSIS [LCT_Y974] 0.623, AHLLQYNHQVK [LGALS3_Y221_R224Q] 1.16, FSGIFYKPESL [L2HGDH_Y103_H98Y_YF] 1.88, YIATQYSLRPR [LBR_Y166] 0.265, YKPGFYNLKEK [LAMA1_Y490_C485Y] 1.18, HNQDGYSFLSR [LDLR_Y845_P848L_YF] 0.799, NPIGLYSAETL [LDB3_Y202] 0.746

What follows are binders tested against SHP2 N-SH2 domain wild-type in the same assay as above. Details: peptide library: pTyr-Var.

Enrichment score, inactive:
CSSPTYRDCLQ [LARGE2_Y682_R677C] 1.29, HNQDDYSYPSR [LDLR_Y845_G844D] 0.434, SCRENYSFSEE [LEMD3_Y258_D260Y_YF] 0.604, SARFRYLLAEK [LDHB_Y173_M175L] 0.499, HGVSSYDTVIS [LDLR_Y465] 0.806, HNQDGYSFPSR [LDLR_Y845_YF] 0.607, RSSPTYRDCLQ [LARGE2_Y682] 0.652, SSFSGYIMMPN [LEF1_Y114_YF] 0.614, ANAFIYVVQLP [L1CAM_Y420_YF] 1.14, FKNGDYNEVMK [LCT_Y1638] 0.786, RLPINYTTRRI [LAMA2_Y2894_G2889R] 0.285, LKVKAYRFSIS [LCT_Y974] 0.679, AHLLQYNHQVK [LGALS3_Y221_R224Q] 0.567, FSGIFYKPESL [L2HGDH_Y103_H98Y_YF] 1.67, YIATQYSLRPR [LBR_Y166] 0.282, YKPGFYNLKEK [LAMA1_Y490_C485Y] 1.09, HNQDGYSFLSR [LDLR_Y845_P848L_YF] 0.754, NPIGLYSAETL [LDB3_Y202] 0.814
